3 molecules from PMC5382322 can be followed below.

Protein sequences, listed by entry. Tags and fused reporters are not part of them.
UniProt O97159: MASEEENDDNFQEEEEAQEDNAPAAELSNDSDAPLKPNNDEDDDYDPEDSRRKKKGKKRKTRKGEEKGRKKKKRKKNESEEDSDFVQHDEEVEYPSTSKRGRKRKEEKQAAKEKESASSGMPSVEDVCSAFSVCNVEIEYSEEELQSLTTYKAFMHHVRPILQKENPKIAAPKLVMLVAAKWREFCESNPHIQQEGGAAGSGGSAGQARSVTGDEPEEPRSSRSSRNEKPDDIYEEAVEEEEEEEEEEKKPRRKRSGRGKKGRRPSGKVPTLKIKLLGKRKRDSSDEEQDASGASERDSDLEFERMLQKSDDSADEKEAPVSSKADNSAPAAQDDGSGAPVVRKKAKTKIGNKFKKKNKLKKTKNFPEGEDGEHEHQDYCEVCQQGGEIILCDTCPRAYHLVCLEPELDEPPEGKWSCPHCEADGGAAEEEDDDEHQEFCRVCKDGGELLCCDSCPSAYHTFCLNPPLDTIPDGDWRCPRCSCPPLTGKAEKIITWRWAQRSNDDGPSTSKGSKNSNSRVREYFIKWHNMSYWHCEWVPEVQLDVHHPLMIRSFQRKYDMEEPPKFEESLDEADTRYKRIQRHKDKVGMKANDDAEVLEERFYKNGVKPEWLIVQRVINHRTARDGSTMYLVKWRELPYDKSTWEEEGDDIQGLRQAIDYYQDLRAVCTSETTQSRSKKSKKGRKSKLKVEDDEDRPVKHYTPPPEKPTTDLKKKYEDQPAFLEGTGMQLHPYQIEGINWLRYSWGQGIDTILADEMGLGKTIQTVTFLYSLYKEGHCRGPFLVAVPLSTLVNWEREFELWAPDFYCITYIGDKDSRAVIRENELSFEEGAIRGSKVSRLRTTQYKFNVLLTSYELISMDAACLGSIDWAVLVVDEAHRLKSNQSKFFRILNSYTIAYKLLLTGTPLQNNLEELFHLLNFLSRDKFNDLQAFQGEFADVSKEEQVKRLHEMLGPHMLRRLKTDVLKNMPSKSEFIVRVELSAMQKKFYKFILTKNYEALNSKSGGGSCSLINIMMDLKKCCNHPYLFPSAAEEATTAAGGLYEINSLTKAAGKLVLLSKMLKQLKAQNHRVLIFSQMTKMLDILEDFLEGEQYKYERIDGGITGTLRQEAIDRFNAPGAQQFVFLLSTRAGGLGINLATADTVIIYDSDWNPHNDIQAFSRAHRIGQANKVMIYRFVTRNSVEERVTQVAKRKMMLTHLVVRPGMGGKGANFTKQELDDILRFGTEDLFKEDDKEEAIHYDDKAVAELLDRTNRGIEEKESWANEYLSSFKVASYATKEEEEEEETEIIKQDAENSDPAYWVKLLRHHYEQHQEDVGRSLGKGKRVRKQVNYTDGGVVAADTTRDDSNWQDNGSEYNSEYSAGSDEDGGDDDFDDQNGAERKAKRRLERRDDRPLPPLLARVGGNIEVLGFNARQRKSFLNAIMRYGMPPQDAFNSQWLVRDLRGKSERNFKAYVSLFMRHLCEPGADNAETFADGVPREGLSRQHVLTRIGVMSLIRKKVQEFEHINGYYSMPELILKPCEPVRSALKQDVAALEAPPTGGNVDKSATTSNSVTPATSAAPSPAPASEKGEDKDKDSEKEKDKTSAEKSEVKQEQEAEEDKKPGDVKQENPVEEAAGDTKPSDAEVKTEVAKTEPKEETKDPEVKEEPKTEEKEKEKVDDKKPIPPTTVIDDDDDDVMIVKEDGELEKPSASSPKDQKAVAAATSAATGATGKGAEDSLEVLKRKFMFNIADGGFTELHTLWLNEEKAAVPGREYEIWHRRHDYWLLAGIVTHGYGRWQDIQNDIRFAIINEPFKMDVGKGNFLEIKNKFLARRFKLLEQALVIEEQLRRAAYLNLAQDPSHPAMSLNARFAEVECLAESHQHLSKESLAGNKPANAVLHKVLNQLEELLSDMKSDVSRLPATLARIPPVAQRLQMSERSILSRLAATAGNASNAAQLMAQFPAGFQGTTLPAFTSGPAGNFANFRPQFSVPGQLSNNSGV

For test [1], the target named is dMi-2 (Drosophila Mi-2), endogenous (Drosophila (endogenous in S2 cells)) (UniProt O97159). Nature of the test: co-IP; endogenous proteins; 500 ug S2 nuclear extract from untreated or ecdysone-exposed (20HE) cells; rat monoclonal anti-dMi-2 antibody 4D8 on Protein G Sepharose, 3 h at 4 °C; washed with buffer D (100 mM KCl) with 0.02% NP40; western blot.
Test [2] deals with T1, N-terminally HA-tagged Ultraspiracle (HA-USP) (Drosophila) (UniProt P20153).
T1 sequence: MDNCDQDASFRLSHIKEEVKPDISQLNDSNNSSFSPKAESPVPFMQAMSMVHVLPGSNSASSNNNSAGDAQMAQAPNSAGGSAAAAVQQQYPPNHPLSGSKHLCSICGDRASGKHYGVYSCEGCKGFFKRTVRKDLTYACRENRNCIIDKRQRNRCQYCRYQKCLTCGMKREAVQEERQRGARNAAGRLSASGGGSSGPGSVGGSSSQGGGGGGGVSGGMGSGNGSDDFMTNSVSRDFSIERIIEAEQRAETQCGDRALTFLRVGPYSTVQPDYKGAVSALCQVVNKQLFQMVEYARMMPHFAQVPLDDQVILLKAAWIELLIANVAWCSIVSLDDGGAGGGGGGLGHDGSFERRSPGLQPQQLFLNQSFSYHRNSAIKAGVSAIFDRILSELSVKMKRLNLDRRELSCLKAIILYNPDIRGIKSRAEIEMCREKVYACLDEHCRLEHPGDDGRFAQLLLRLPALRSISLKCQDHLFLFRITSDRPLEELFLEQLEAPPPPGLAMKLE
The test is described as follows: co-IP; Sf9 cells co-infected with baculoviruses, untreated or exposed to ecdysone; whole-cell extract on HA agarose, 4 h at 4 °C; washed five times with Lysis Buffer (20 mM Hepes pH 7.6, 200 mM KCl, 0.1% NP40, 10% glycerol); western blot.

Test [3] concerns the target dMi-2-FLAG (Drosophila) (UniProt O97159). The test is described as follows: co-IP; Sf9 cells co-infected with baculoviruses, untreated or exposed to ecdysone; whole-cell extract on FLAG agarose, 4 h at 4 °C; washed five times with Lysis Buffer (20 mM Hepes pH 7.6, 200 mM KCl, 0.1% NP40, 10% glycerol); western blot. For orientation: Immunoblotting shows a protein as a band on a membrane.

Test [4] has as its target dMi-2-FLAG (Drosophila), O97159. The description is as above. To be noted: remark: other sources report otherwise.

These are yes or no findings as the source states them, for the method shown. In cells and extracts the contact can be indirect. Some results given as binding are weak or reduced against the parent protein; the word gives no strength. For some of these results: Where a sequence is shown, tags or fusion partners need not be part of it.

B1: ecdysone receptor (EcR), endogenous (receptor, UniProt P34021 1-878)
chain: MKRRWSNNGGFMRLPEESSSEVTSSSNGLVLPSGVNMSPSSLDSHDYCDQDLWLCGNESGSFGGSNGHGLSQQQQSVITLAMHGCSSTLPAQTTIIPINGNANGNGGSTNGQYVPGATNLGALANGMLNGGFNGMQQQIQNGHGLINSTTPSTPTTPLHLQQNLGGAGGGGIGGMGILHHANGTPNGLIGVVGGGGGVGLGVGGGGVGGLGMQHTPRSDSVNSISSGRDDLSPSSSLNGYSANESCDAKKSKKGPAPRVQEELCLVCGDRASGYHYNALTCEGCKGFFRRSVTKSAVYCCKFGRACEMDMYMRRKCQECRLKKCLAVGMRPECVVPENQCAMKRREKKAQKEKDKMTTSPSSQHGGNGSLASGGGQDFVKKEILDLMTCEPPQHATIPLLPDEILAKCQARNIPSLTYNQLAVIYKLIWYQDGYEQPSEEDLRRIMSQPDENESQTDVSFRHITEITILTVQLIVEFAKGLPAFTKIPQEDQITLLKACSSEVMMLRMARRYDHSSDSIFFANNRSYTRDSYKMAGMADNIEDLLHFCRQMFSMKVDNVEYALLTAIVIFSDRPGLEKAQLVEAIQSYYIDTLRIYILNRHCGDSMSLVFYAKLLSILTELRTLGNQNAEMCFSLKLKNRKLPKFLEEIWDVHAIPPSVQSHLQITQEENERLERAERMRASVGGAITAGIDCDSASTSAAAAAAQHQPQPQPQPQPSSLTQNDSQHQTQPQLQPQLPPQLQGQLQPQLQPQLQTQLQPQIQPQPQLLPVSAPVPASVTAPGSLSAVSTSSEYMGGSAAIGPITPATTSSITAAVTASSTTSAVPMGNGVGVGVGVGGNVSMYANAQTAMALMGVALHSHQEQLIGGVAVKSEHSTTA
B1: the binding entry in test [1] is “binds”.

B2: untagged EcR (baculovirus-expressed) (receptor, UniProt P34021 1-878)
chain: MKRRWSNNGGFMRLPEESSSEVTSSSNGLVLPSGVNMSPSSLDSHDYCDQDLWLCGNESGSFGGSNGHGLSQQQQSVITLAMHGCSSTLPAQTTIIPINGNANGNGGSTNGQYVPGATNLGALANGMLNGGFNGMQQQIQNGHGLINSTTPSTPTTPLHLQQNLGGAGGGGIGGMGILHHANGTPNGLIGVVGGGGGVGLGVGGGGVGGLGMQHTPRSDSVNSISSGRDDLSPSSSLNGYSANESCDAKKSKKGPAPRVQEELCLVCGDRASGYHYNALTCEGCKGFFRRSVTKSAVYCCKFGRACEMDMYMRRKCQECRLKKCLAVGMRPECVVPENQCAMKRREKKAQKEKDKMTTSPSSQHGGNGSLASGGGQDFVKKEILDLMTCEPPQHATIPLLPDEILAKCQARNIPSLTYNQLAVIYKLIWYQDGYEQPSEEDLRRIMSQPDENESQTDVSFRHITEITILTVQLIVEFAKGLPAFTKIPQEDQITLLKACSSEVMMLRMARRYDHSSDSIFFANNRSYTRDSYKMAGMADNIEDLLHFCRQMFSMKVDNVEYALLTAIVIFSDRPGLEKAQLVEAIQSYYIDTLRIYILNRHCGDSMSLVFYAKLLSILTELRTLGNQNAEMCFSLKLKNRKLPKFLEEIWDVHAIPPSVQSHLQITQEENERLERAERMRASVGGAITAGIDCDSASTSAAAAAAQHQPQPQPQPQPSSLTQNDSQHQTQPQLQPQLPPQLQGQLQPQLQPQLQTQLQPQIQPQPQLLPVSAPVPASVTAPGSLSAVSTSSEYMGGSAAIGPITPATTSSITAAVTASSTTSAVPMGNGVGVGVGVGGNVSMYANAQTAMALMGVALHSHQEQLIGGVAVKSEHSTTA
Take B2: the binding entry in test [2] and in test [3] was “binds” in each case.

B3: N-terminally HA-tagged Ultraspiracle (HA-USP), P20153 1-508 (receptor)
chain: MDNCDQDASFRLSHIKEEVKPDISQLNDSNNSSFSPKAESPVPFMQAMSMVHVLPGSNSASSNNNSAGDAQMAQAPNSAGGSAAAAVQQQYPPNHPLSGSKHLCSICGDRASGKHYGVYSCEGCKGFFKRTVRKDLTYACRENRNCIIDKRQRNRCQYCRYQKCLTCGMKREAVQEERQRGARNAAGRLSASGGGSSGPGSVGGSSSQGGGGGGGVSGGMGSGNGSDDFMTNSVSRDFSIERIIEAEQRAETQCGDRALTFLRVGPYSTVQPDYKGAVSALCQVVNKQLFQMVEYARMMPHFAQVPLDDQVILLKAAWIELLIANVAWCSIVSLDDGGAGGGGGGLGHDGSFERRSPGLQPQQLFLNQSFSYHRNSAIKAGVSAIFDRILSELSVKMKRLNLDRRELSCLKAIILYNPDIRGIKSRAEIEMCREKVYACLDEHCRLEHPGDDGRFAQLLLRLPALRSISLKCQDHLFLFRITSDRPLEELFLEQLEAPPPPGLAMKLE
B3: the binding result in test [4] is “no binding”.
